Screen size: about 310,000 compounds; about 2,200 (0.71%) showed an effect of 50% or more. Effects have a minus sign here. This is one part of the list.

Consider 58 compounds from publication PMC4336329 (PLoS ONE, 2015).

Chain of human ether-à-go-go-related gene (hERG) potassium channel (Q12809 whole entry, looked up): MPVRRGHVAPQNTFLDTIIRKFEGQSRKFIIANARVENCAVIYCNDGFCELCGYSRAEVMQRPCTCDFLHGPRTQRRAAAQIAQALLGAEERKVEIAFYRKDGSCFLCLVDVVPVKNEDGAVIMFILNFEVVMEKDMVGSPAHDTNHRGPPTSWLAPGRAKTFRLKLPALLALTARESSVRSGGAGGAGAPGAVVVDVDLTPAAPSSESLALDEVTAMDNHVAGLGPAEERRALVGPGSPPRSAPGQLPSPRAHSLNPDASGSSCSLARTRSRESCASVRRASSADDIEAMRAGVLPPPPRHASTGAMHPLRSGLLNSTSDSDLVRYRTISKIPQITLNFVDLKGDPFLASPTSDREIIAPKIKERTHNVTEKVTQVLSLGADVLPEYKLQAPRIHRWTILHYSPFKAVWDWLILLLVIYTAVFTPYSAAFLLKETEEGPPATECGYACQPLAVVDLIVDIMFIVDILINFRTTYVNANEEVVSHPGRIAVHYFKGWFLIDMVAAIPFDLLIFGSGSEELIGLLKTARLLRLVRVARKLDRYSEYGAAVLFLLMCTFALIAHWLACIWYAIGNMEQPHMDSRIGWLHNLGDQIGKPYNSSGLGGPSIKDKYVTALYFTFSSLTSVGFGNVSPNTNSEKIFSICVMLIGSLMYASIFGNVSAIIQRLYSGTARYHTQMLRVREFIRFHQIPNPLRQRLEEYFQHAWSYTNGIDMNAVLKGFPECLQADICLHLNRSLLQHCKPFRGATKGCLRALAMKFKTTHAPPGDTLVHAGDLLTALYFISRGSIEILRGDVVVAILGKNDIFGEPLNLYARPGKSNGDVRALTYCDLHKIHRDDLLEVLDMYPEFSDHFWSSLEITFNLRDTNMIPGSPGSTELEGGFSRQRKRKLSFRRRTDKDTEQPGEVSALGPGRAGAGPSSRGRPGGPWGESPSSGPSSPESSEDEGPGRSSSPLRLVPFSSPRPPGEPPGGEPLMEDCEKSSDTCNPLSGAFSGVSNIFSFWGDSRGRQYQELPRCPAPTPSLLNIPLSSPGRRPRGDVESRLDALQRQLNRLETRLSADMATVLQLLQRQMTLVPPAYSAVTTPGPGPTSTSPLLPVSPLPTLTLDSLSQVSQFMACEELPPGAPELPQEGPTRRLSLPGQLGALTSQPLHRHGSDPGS

This test addresses human ether-à-go-go-related gene (hERG) potassium channel (human, UniProt Q12809). Description: primary screen, population patch clamp on CHO cells stably expressing hERG.
`C[C@@H](C(=O)NCc1ccccn1)[C@H]1C[C@]1(C)[C@H](NC(=O)OCc1ccccc1)c1ccccc1`: the “hERG current change (%, negative = inhibition) at 1uM” value is listed as 12.8%. To `C/C(=N\NC(=O)Cc1ccc([N+](=O)[O-])cc1)c1cccnc1` belongs 11.1%; to `Cc1ccc(C(=O)C(C)Oc2cccc(NC(=O)c3ccco3)c2)cc1` (stereo not shown), 10.7%. To `CC12CCC(=O)N1C(C(=O)N1CCN(S(=O)(=O)c3ccccc3F)CC1)CS2` (stereo not shown) belongs -18.5%; to `COc1ccc(NC(=O)CC2SC(N3CCOCC3)=NC2=O)cc1OC` (stereo not shown), 10.2%; to `CCN=C1SC(C(N)=O)CC(=O)N1CC` (stereo not shown), 10.5%.

Take `Cc1ccc(S(=O)(=O)N2CCC(=O)N(CCOC(=O)Nc3cc(C)cc(C)c3)CC2)cc1`: the “hERG current change (%, negative = inhibition) at 1uM” value is -0.244%.

On to `O=C(NCC1CCCO1)c1cccc(C(=O)NCC2CCCO2)c1` (stereo not shown), for which the “hERG current change (%, negative = inhibition) at 1uM” value turned out to be 8.7%. To `c1ccc(-c2cnnn2-c2ccccc2)cc1` belongs 16%; to `CCN(CC)S(=O)(=O)c1cc(NC(=O)c2ccc(Br)s2)ccc1C`, 15.2%; to `C=CCn1c(SCC(=O)Nc2cccc3ccccc23)nnc1-c1cnccn1`, -4.07%.

With `Cc1onc(-c2ccccc2Cl)c1C(=O)NCc1nc(-c2ccccc2)no1`, the “hERG current change (%, negative = inhibition) at 1uM” value turned out to be 2.49%. To `COc1ccc(NC(=O)CN2C(=O)N(C)Cc3ccccc32)c(C)c1` belongs 6.65%; to `CC1(C)CC(=O)c2c(O)c(-c3ccccc3)c(=O)n(-c3ccccc3)c2C1`, 3.77%. On to `CP(=O)(O)CCCN.Cl`, for which the “hERG current change (%, negative = inhibition) at 1uM” value is on record as 11.9%. To `CN(C)CCNC(=O)/C(=C/c1ccc(-c2ccc(Cl)cc2)o1)NC(=O)c1ccccc1` belongs -82%; to `C=CCN(CC=C)C(=O)Nc1cc(OC)ccc1OC`, 9.91%. To `Cc1nonc1NC(=O)CSc1cn[nH]n1` belongs 12.5%; to `Cc1sc2nc(-c3cccs3)oc(=O)c2c1C`, 17.3%; to `CCOCCCn1c(SCC(=O)NCc2ccco2)nc2c(sc3ccccc32)c1=O`, 3.64%.

Consider `CCOc1ccccc1NC(=O)CC1Nc2cc(C)c(C)cc2NC1=O` (stereo not shown), for which the “hERG current change (%, negative = inhibition) at 1uM” value is recorded as 0.117%. To `Cc1ccc(SC(C)c2nc(-c3ccncc3)no2)cc1` (stereo not shown) belongs -6.77%.

On to `O=C(Cc1ccccc1)Nn1c(-c2ccccc2F)nc2ccccc2c1=O`, for which the “hERG current change (%, negative = inhibition) at 1uM” value is 11.4%. Consider `Cc1ccccc1OCCCn1c(CO)nc2ccccc21`, for which the “hERG current change (%, negative = inhibition) at 1uM” value worked out at 5%. With `Cc1cc(C)c2c(=O)[nH]c(SCC(=O)c3ccc(F)c(C)c3)nc2n1` the figure was 11.9%.

Regarding `COc1ccc(CNC(=O)CCS(=O)(=O)Cc2ccc(C)cc2)c(OC)c1`, the “hERG current change (%, negative = inhibition) at 1uM” value was determined as 1.49%.

Regarding `C=CCn1c(C)cc(C(=O)COc2ncnc3sccc23)c1C`, the “hERG current change (%, negative = inhibition) at 1uM” value is reported as 1.47%. With `Cl.O=C(CSC1=NCCN1)NC12CC3CC(CC(C3)C1)C2` the figure was -0.0963%. To `COc1cccc(NC(=O)CCN2C(=O)c3ccc([N+](=O)[O-])cc3C2=O)c1` belongs 15.8%. On to `COc1ccccc1C(=O)N/C(=C/c1ccc2c(c1)OCO2)C(=O)Nc1cccc(C(=O)O)c1`, for which the “hERG current change (%, negative = inhibition) at 1uM” value is on record as -4.72%. To `CC1CN(C(=O)c2cccc(S(=O)(=O)NCc3ccccc3)c2)CC(C)O1` (stereo not shown) belongs 7.93%; to `CC(NC(=O)Nc1ccccc1)C(c1cccs1)N1CCOCC1` (stereo not shown), 7.03%; to `O=P(O)(C(O)c1ccccc1)C(O)c1ccccc1` (stereo not shown), 12.4%.

Regarding `Cc1cc2cc(CNC(=O)c3ccc(S(=O)(=O)N4CCOCC4)cc3)ccc2[nH]1`, the “hERG current change (%, negative = inhibition) at 1uM” value turned out to be 5.8%. In the case of `COc1cccc(NC(=O)COC(=O)CC(NC(N)=O)c2ccc(Cl)cc2)c1` (stereo not shown), the “hERG current change (%, negative = inhibition) at 1uM” value is 5.86%. To `CCOc1ccc(Oc2cc(C)nc(SC)n2)nn1` belongs 9.29%. With `COc1ccc(CC(=O)NCc2n[nH]c(=S)n2C)cc1` the figure was 7.17%; with `COc1ccc(NC(=O)CN(C)C(=O)c2ccc(N3CCCC3)c([N+](=O)[O-])c2)cc1`, -20%. On to `Cc1cc(-c2cccc(Br)c2)c(C#N)c(N)n1`, for which the “hERG current change (%, negative = inhibition) at 1uM” value came out at 15.7%. With `COc1ccc(OC)c(NC(=O)C2C3C=CC(C3)C2C(=O)NCc2ccccn2)c1` (stereo not shown) the figure was 15.7%; with `CC(=O)c1sc(NC(=O)c2cc(S(=O)(=O)N3CCOCC3)ccc2F)nc1C`, 9.09%. To `CC(C)(C)NC(=O)Cn1c(=O)c(=O)n(Cc2ccccc2)c2ccc(Cl)cc21` belongs 7.81%; to `CC(=O)c1ccc(N2CCN(CC(=O)Nc3ccc4c(c3)OCCO4)CC2)cc1`, 2.42%; to `COc1ccc(C(N)=O)c(OCC(=O)Nc2cc(C)on2)c1`, 5.35%.

As for `O=C(/C=C/Nc1ccc(F)cc1)c1cccs1`, the “hERG current change (%, negative = inhibition) at 1uM” value worked out at 14.2%. With `COc1ccc2c(C(=O)CN3CCN(c4ccccc4)CC3)c[nH]c2c1` the figure was -14.4%; with `COc1ccc(CCNC(=O)C2CCCN2C(=O)Nc2ccc(C)cc2)cc1OC` (stereo not shown), 8.53%. To `O=C(OCCCOC(=O)c1ccc(Br)o1)c1ccc(Br)o1` belongs -3.62%; to `O=S(=O)(NCCN1CCCC1)c1ccc(Cl)cc1`, 11.6%.

As for `COc1ccccc1OCC(=O)N/N=C1/SCC(=O)N1Cc1ccccc1`, the “hERG current change (%, negative = inhibition) at 1uM” value worked out at 6.48%. With `Cc1nc(N)[nH]c(=O)c1Oc1cccc(C(F)(F)F)c1` the figure was 8.98%; with `COc1ccc(Cl)cc1NC(=O)CN(C)C(=O)CSc1ccc2c(c1)OCCO2`, 6.73%. To `CCOc1nc(C)ccc1-c1noc(-c2ccccn2)n1` belongs 2.91%; to `CC(C)[N+]12CCC(CC1)C(C(O)(c1ccccc1)c1ccccc1)C2.[I-]` (stereo not shown), 15.7%. With `COC(=O)c1cccc(CSC(=S)N2CCCC2)c1` the figure was 7.05%; with `Cc1ccc(NCCC(=O)c2ccc(Cl)c(Cl)c2)cc1`, 5.27%. Consider `O=C(COc1ccc([N+](=O)[O-])cc1)NCCc1nc2ccccc2[nH]1`, for which the “hERG current change (%, negative = inhibition) at 1uM” value is given as -5.14%. With `Nc1ccc2nc3c(=O)n(CCc4ccccc4)c(=O)[nH]c3nc2c1` the figure was 8.93%.
